# Assay results reported in the supplement of paper PMC3334620.
# Whole data set: some 33,000 sequences, median “E-score (-0.5 to 0.5)” near -0.016, cut for the highest 2% near 0.31. The list shows a part of the results.
# Biological target: Cst6 (UniProt P40535)
# Assay: PBM E-score (8-mer binding enrichment) (E-score (-0.5 to 0.5)); higher = stronger / more preferred TF binding; most listed sequences are background and not binding sites
# Conditions: protein concentration: 200 nM; construct: GST-DNA-binding domain
# Description: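 Universal 'all 10-mer' protein binding microarrays (Agilent AMADID 015681) probed with GST-tagged S. cerevisiae TFs (full-length or DBD) made by in vitro transcription/translation (PURExpress), about 100-200 nM. Bound TF was detected with fluorescent anti-GST. Each ungapped 8-mer (which stands for itself and its reverse complement) is scored by the PBM enrichment score (E-score), a modified Wilcoxon-Mann-Whitney statistic from -0.5 to +0.5, computed with the Universal PBM Analysis Suite. Scale: above 0.35 generally sequence-specific binding.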
row,Sequence,PBM E-score
1,ACACACGA,0.0814
2,GCTCAAGA,-0.169
3,CTGTATTC,0.0607
4,GGTGTGTA,-0.152
5,CCGAATCC,-0.153
6,CCGATGAG,-0.087
7,CCATTGCC,0.0353
8,CGCTCGCC,-0.0525
9,CTCCGCGA,-0.236
10,AGTCTCCA,-0.193
11,CTCTTGCA,-0.139
12,TAATGGCA,0.179
13,ATCTCACC,0.0941
14,ACCTTGAC,-0.016
15,ACATCCTC,-0.143
16,ACCATGAT,0.146
17,CTAGTCAA,-0.127
18,CGGCCAAG,-0.157
19,GGGTAGAC,-0.299
20,TTGGCAAA,0.242
21,TAACCTTA,-0.0914
22,AATATACA,0.207
23,CGTGTTCA,0.0994
24,GGTGGTGA,0.0974
25,ATTTAAAC,0.255

row,Sequence,PBM E-score
1,AGTCACTG,0.0602
2,CTCCTTAA,-0.106
3,GGCTGGAC,-0.329
4,ACGAACTC,0.113
5,ATATGTCG,0.185
6,CAGGACGG,-0.0963
7,ACAGTGCT,-0.0311
8,ATCTCAAT,0.176
9,ACGCTAAT,-0.104
10,GGTTACTA,-0.0892
11,AACACATC,0.0529
12,ATCCGACG,0.0804
13,AGAGCGCT,-0.00983
14,AACTGACG,0.277
15,CCGTTCGC,-0.0956
16,AGTTGAAG,-0.0917
17,CCGCAGCC,-0.189
18,CACATAAC,0.0869
19,ACACCCTA,-0.0333
20,AAGCAACC,0.122
21,ATCGGAAT,0.0663
22,CCTCTGGA,-0.106
23,ACATAAGG,0.158
24,GCCTGTCA,0.00817
25,GGACGGTA,-0.188

row,Sequence,PBM E-score
1,AGGACGAT,0.0316
2,AGGAACCG,-0.0834
3,CACGCGAC,-0.147
4,CGCGCATA,-0.0399
5,CCCTTGTC,-0.105
6,GGAGATAA,0.0846
7,ATAGTGCC,-0.0667
8,CCGCACGC,0.0892
9,ACCTTACA,-0.0143
10,TAAGGCTA,-0.0663
11,AAGAGATT,0.123
12,GCGACGAA,0.0164
13,ACGTAAAA,0.354
14,CCTTTAAA,-0.0112
15,AAGCAATG,-0.0626
16,CGGCGTAA,0.199
17,CTCATACA,0.116
18,AATTCCAA,0.18
19,CTTCCAGA,-0.113
20,AAACAGAA,0.206
21,CCTCACTA,0.0149
22,ATCGGCCC,-0.0912
23,TATTAGGA,0.0232
24,CCTTTTGC,-0.0758
25,ACTTTAAG,0.122

row,Sequence,PBM E-score
1,ACGCCTGC,-0.25
2,GCATCCGC,-0.126
3,AGGATCCC,-0.102
4,GCTCCTAA,-0.305
5,ACACGCAG,-0.136
6,GGGATAAA,0.237
7,GGTCAAAC,0.0398
8,CCCTCGCA,-0.169
9,GCAACTGA,0.104
10,GTCGGAAC,-0.15
11,GCTCAGAA,0.0451
12,AGATACAG,0.0824
13,GATCTCGA,-0.0832
14,ACTGGCAG,-0.27
15,AGGCCTTC,-0.166
16,CGACCTTC,-0.169
17,ACCTGAGT,-0.176
18,GACATGCA,-0.0362
19,ATGGGTCG,-0.14
20,GTCGCATA,0.124
21,CGACAGCA,-0.0574
22,GCATGTGA,0.0636
23,ATCCCCTG,-0.23
24,ACTGCTTG,-0.234
25,ACTACAGA,0.133

row,Sequence,PBM E-score
1,TGATATAA,0.323
2,GAGGGAGC,-0.321
3,CCGGCGAG,-0.129
4,AGGTTTAA,0.0666
5,CGTCAGTA,0.275
6,AAAACGAG,-0.0668
7,ACAGTAGG,-0.0485
8,AGCGCACG,-0.148
9,ATTCAGTG,0.129
10,AGACTATC,-0.0567
11,TAGGGAGA,-0.16
12,AGGCGTGC,-0.0426
13,ATTAGTTA,0.214
14,CAGCCGAC,-0.28
15,TCCTTAGA,-0.0955
16,CACGTCCA,-0.112
17,AGACCTGA,-0.237
18,ATCGCGCA,-0.00583
19,GAACACAA,-0.0199
20,GTCATCAC,0.409
21,GCCTCTCC,-0.297
22,AATATTAG,0.185
23,ATGCTGAA,0.00037
24,AAGCCATC,-0.0363
25,ACCGTATC,0.0487

row,Sequence,PBM E-score
1,CATATAAG,0.146
2,CGATTACC,-0.107
3,AGGCTAAG,-0.0862
4,AGACAAAT,0.159
5,CTTCGCTA,-0.0133
6,TCAGAGAA,0.00205
7,AGTTCGAA,0.111
8,CTTCGGTA,-0.107
9,GCCTCTTA,0.0636
10,GTAACAAA,0.276
11,CACTGACC,-0.133
12,CTCTCAAC,-0.143
13,AGAGGATG,-0.114
14,AACACAGG,-0.248
15,ACCTCACG,0.0763
16,GGTATCGA,-0.0444
17,CTAATGCC,0.0141
18,CGTGAACC,-0.269
19,TGCCCGAA,-0.0936
20,GAGAAGCC,-0.233
21,ACGCCTTA,0.0533
22,GTATCCGA,-0.0626
23,CCACGGAA,0.00454
24,GAAGTCGC,-0.123
25,GAGCTACC,-0.0923

row,Sequence,PBM E-score
1,GCTGTGCC,-0.0933
2,CCAATAAG,0.0598
3,ACTTCCAT,0.0149
4,GGGTCCTA,-0.316
5,CATTGACC,0.149
6,CGACAACA,0.243
7,ATTTTCCA,0.0793
8,GGTCGCAC,-0.18
9,CTTCATAA,0.182
10,CCACTAGG,-0.32
11,AATACCGC,-0.128
12,CACTTCGC,0.0732
13,GCCTGTAC,-0.0146
14,CCGGCTCG,-0.128
15,CGACGAGA,-0.0521
16,CATGAAAA,0.23
17,GGGAACCC,-0.31
18,AACTGTAG,-0.045
19,AAGTATCC,-0.0686
20,CGGACACG,0.00971
21,AAATACAA,0.321
22,CGGGGGTC,-0.357
23,GCCAGCGA,-0.269
24,AGACCACT,-0.0953
25,AATAAGTC,-0.0407

row,Sequence,PBM E-score
1,AACTTATT,0.161
2,AACGGTTA,-0.0646
3,ACACTAGC,-0.131
4,ATGGGGCC,-0.312
5,AACAGAGA,-0.0315
6,CTATGTTC,-0.0423
7,AATAGTAT,0.19
8,CAATGAAG,0.0658
9,CCATCAAC,0.035
10,AAGCGGCG,0.254
11,GAGTGGGC,-0.208
12,AATTCTGC,0.1
13,CACAACCA,0.124
14,TACATCAA,0.283
15,AGATTTGG,-0.246
16,CCGACTCG,-0.194
17,AACGGAAG,-0.0423
18,CCGTTCAA,0.00244
19,GTAATCCA,0.143
20,AGAATCAA,0.0418
21,CCGAAACC,-0.163
22,ACTCCATG,-0.149
23,CACGCTAG,-0.123
24,AACTCATC,0.068
25,GGGCTAAC,-0.19

row,Sequence,PBM E-score
1,CGGCGTGC,-0.0962
2,GCAGAGCC,-0.191
3,CTATTGCC,-0.112
4,AACACTGA,0.192
5,ATACTCCC,-0.076
6,AAGTAGTA,-0.0162
7,CGCGAATC,0.0524
8,ACCAAGAA,0.193
9,TTCGAAAA,0.296
10,ATTTAGCA,0.123
11,TAGCAGAA,0.107
12,AGGATGAG,-0.0545
13,ACGTGGAA,0.15
14,AGGGAGAC,-0.219
15,CCTCTGGC,-0.193
16,GTTGCCCA,-0.135
17,AGCTTGTG,-0.155
18,GTGCTACA,-0.0692
19,GGATCCCC,-0.321
